Data from PubChem BioAssay AID624417 (National Center for Advancing Translational Sciences (NCATS), 2012).
In all, about 410,000 compounds went through this assay and about 6,400 (1.6%) were called active. Inconclusive results, whose numbers are uncertain, are shown with a selection of clear calls. The call rests on the fitted dose curve; in most records, active means well fitted inhibition curve with a large enough effect; inconclusive means small, poorly fitted or top-dose-only effect; inactive means no such curve, though single readings can be large or run the other way. Potencies of inconclusive entries are left out as doubtful fits.

Target: Glucagon-like peptide 1 receptor (Homo sapiens) (UniProt P43220)
Chain of UniProt P43220 (P43220 whole entry, looked up): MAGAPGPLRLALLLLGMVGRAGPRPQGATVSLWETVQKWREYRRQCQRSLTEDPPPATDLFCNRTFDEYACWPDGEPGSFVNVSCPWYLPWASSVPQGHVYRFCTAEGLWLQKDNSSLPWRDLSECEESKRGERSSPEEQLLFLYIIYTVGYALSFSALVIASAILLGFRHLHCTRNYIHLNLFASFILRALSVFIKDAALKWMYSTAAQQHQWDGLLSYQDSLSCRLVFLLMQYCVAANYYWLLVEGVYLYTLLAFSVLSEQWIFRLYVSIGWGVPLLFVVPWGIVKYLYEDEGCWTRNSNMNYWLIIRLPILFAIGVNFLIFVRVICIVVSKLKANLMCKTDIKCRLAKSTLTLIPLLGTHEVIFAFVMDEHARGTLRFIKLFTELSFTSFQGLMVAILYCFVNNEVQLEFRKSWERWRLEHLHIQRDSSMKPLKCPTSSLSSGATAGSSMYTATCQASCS
Assay: qHTS of GLP-1 Receptor Inverse Agonists (Inhibition Mode); further: nearly all actives have a fitted effect of over 55% in size
Details: HEK293 GLP-1R CRE-luciferase, luminescence, 24 h, GLP-1R form is constitutively active; series mostly up to 38.3 µM
In short: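 Using stably transfected HEK293 (constitutively active GLP-1R, cAMP-luciferase reporter), compounds were incubated 24 hr and luciferase measured by luminescence.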
Potency means the concentration at half of the fitted maximal effect; tags describe the fitted curve by direction and shape.

SMILES | Potency
CCC(C)Nc1ncnc2c1cnn2Cc1ccc(Cl)cc1 (stereo unspecified) | inconclusive [inhibitor, single point]
CC(=O)Nc1ccc(-c2csc(NC(=O)C3CC(=O)N(c4ccc5c(c4)OCCO5)C3)n2)cc1 (stereo unspecified) | inconclusive [inhibitor, single point]
Cc1ccc(CNc2nc(NC(C)C)nc3ccsc23)c(C)c1 | inconclusive [inhibitor, partial curve, poor fit]
Cc1ccc(NC(=O)CSc2nc(=O)n(CCCN(C)C)c3c2CCC3)cc1F | inactive
CCN(CC)CCNc1c2c(c(C#N)c3nc4ccccc4n13)CCCC2 | inconclusive [inhibitor, single point]
CC(C(=O)Nc1ccc(Cl)cc1Cl)N1C(=O)NC2(CCCCCCC2)C1=O (stereo unspecified) | inconclusive [inhibitor, single point]
c1ccc(-n2nnnc2NCCc2c[nH]c3ccccc23)cc1 | inconclusive [inhibitor, single point]
CC(C)c1ccc(NC2CCCN(C(=O)C3=NN(C)C(=O)CC3)C2)cc1 (stereo unspecified) | inconclusive [inhibitor, single point]
COc1ccc(C2=NN(C(=O)CN3CCCCC3)C(c3ccc(C)cc3)C2)cc1 (stereo unspecified) | inconclusive [inhibitor, partial curve, poor fit]
O=C(CCN1CCN(c2ccc(Cl)cc2)CC1)Nc1nccs1 | inconclusive [inhibitor, single point]
Nc1[nH]c(C(=O)c2ccccc2)c(-c2ccccc2C(F)(F)F)c1C(=O)NCCc1c[nH]c2ccccc12 | inconclusive [inhibitor, single point]
Cc1nc2nc(SCC(=O)NCCc3ccc(Cl)cc3)nn2c(C)c1Cc1ccccc1 | inconclusive [inhibitor, partial curve, poor fit]
CCOC(CNc1cc(C)nc2c(-c3ccccc3OC)c(C)nn12)OCC | inconclusive [inhibitor, single point]
CN1CCSc2ccc(C(=O)Nc3cccc(F)c3)cc21 | inconclusive [inhibitor, single point]
COc1cccc(OC)c1NC(=O)c1ccc(-c2cc(Cl)ccc2Cl)o1 | inactive
COc1cc2c(cc1OC)C(COc1cccc(C(F)(F)F)c1)NCC2 (stereo unspecified) | inconclusive [inhibitor, partial curve, poor fit]
Cn1c(NCc2cc(Br)ccc2O)nc2ccccc21 | inconclusive [inhibitor, single point]
S=c1[nH]nc(C2CCCCC2)n1Cc1ccccc1 | inconclusive [inhibitor, full curve, poor fit]
CCOC(=O)c1[nH]c2ccc(C)cc2c1NC(=O)CN1CCCCC1 | inconclusive [inhibitor, partial curve, poor fit]
COc1cc(OC)c(NC(=O)NCc2ccc3c(c2)CCN3C(=O)c2ccccc2)cc1Cl | inactive
Cc1nc(N2CCCCC2)c2c(C)c(C(=O)Nc3ccccc3C(F)(F)F)sc2n1 | inconclusive [inhibitor, partial curve, poor fit]

SMILES | Potency
CC1=NN(C(N)=S)C(=O)C1N=Nc1ccc(Cl)cc1Cl (stereo unspecified) | inconclusive [inhibitor, full curve, poor fit]
O=C(Nc1ccc(F)c(Cl)c1)C1Cc2c(-c3cccc(F)c3)ccnc2O1 (stereo unspecified) | inconclusive [inhibitor, partial curve, poor fit]
COC(=O)c1ccc(C)c(NC(=O)CCc2ccc(OC)cc2)c1 | inconclusive [inhibitor, single point]
Cc1ccccc1CN1CCCC(C(=O)Nc2ccc(-c3ccn[nH]3)cc2)C1 (stereo unspecified) | inconclusive [inhibitor, single point]
COc1cccc(-c2ccc(NC(=O)C3CCCN(Cc4cccc(C)n4)C3)cc2)c1 (stereo unspecified) | inconclusive [inhibitor, single point]
CC/C(O)=C1\C(=O)CC(C)(C)CC1=Nc1ccccc1C | inconclusive [inhibitor, partial curve, poor fit]
Cc1ccccc1CC(=O)Nc1ccc2c(c1)c(=O)n(C)n2-c1ccccc1F | inconclusive [inhibitor, single point]
Cc1cccc(/C=N/NC(=O)c2cc(Br)ccc2OCc2ccccc2)n1 | inconclusive [inhibitor, single point]
Cc1ccc(C2=N/C(=C/c3cccs3)C(=O)N2Nc2ccccc2)cc1 | inconclusive [inhibitor, single point]
CN(CC(=O)Nc1c(Cl)cccc1Cl)C(=O)c1sccc1-c1ccccc1 | inconclusive [inhibitor, single point]
CCN(CC)S(=O)(=O)c1ccc(-c2nnc(SCC(=O)Nc3nc(C)cs3)o2)cc1 | inactive
CC(C)n1c(=O)[nH]c2ccccc21 | inactive
Cc1ccc(Cn2ccsc2=NC(=O)COC(=O)c2ccc(O)cc2O)cc1 | inconclusive [inhibitor, partial curve, poor fit]
Cc1ccc(-n2c(SCC(=O)NCC3CCCO3)nc3ccccc3c2=O)cc1C (stereo unspecified) | inconclusive [inhibitor, partial curve, poor fit]
C=CCC(C(=O)NC(C)c1ccccc1)C(=O)NC(C)c1ccccc1 (stereo unspecified) | inconclusive [inhibitor, partial curve, poor fit]
O=C(O)CCCCCNC(=O)CCn1nnc2ccccc2c1=O | inactive
CCCNC(=O)c1onc(CSc2ccc(F)c(F)c2)c1C(=O)NCCC | inconclusive [inhibitor, single point]
COc1ccc(/C=N\NC(=O)c2ccccc2F)cc1COc1ccc(F)cc1F | inconclusive [inhibitor, full curve, poor fit]
CCOc1ccc(-c2nc(-c3cccnc3)no2)cc1 | inconclusive [inhibitor, single point]
CC(=O)Nc1cccc(-c2ccnc3c2CC(C)(C(=O)NCc2cccs2)O3)c1 (stereo unspecified) | inconclusive [inhibitor, full curve, poor fit]
O=C(Nc1cccc(C(=O)N2CCN(c3ccc(Cl)cc3)CC2)c1)c1nsc2ccccc12 | inconclusive [inhibitor, single point]

SMILES | Potency
COc1ccc(OC)c(NC(=O)C2(C)CCN2Cc2ccsc2)c1 (stereo unspecified) | inconclusive [inhibitor, partial curve, poor fit]
O=C(NCc1cccnc1)C1CCN(Cc2cc3ccccc3n2Cc2cccc(Cl)c2)CC1 | inconclusive [inhibitor, single point]
Cc1cc(S(=O)(=O)Nc2ccc(C(=O)N3CC(C)OC(C)C3)cc2)ccc1F (stereo unspecified) | inconclusive [inhibitor, full curve, poor fit]
Cc1cc2nc(C3CCCN(C(=S)Nc4ccccc4)C3)[nH]c2cc1C (stereo unspecified) | inconclusive [inhibitor, partial curve, poor fit]
O=C(CC1CCCC1)Nc1ccc(Br)cc1 | inconclusive [inhibitor, partial curve, poor fit]
CCOc1ccc(N(CCCCO)C(=S)NC(=O)c2ccc(C)c(Br)c2)cc1 | inconclusive [inhibitor, single point]
O=C(Nc1cnn(Cc2c(Cl)cccc2Cl)c1)C(c1ccccc1)c1ccccc1 | inconclusive [inhibitor, full curve, poor fit]
N#Cc1ccccc1Cn1cc(C#N)c2ccccc21 | inconclusive [inhibitor, partial curve, poor fit]
CN(CCCN1CCOCC1)C(=O)c1ccc2nc(Cc3cccc(Cl)c3)oc2c1 | inconclusive [inhibitor, full curve, poor fit]
COc1ccc(-n2c(=O)c3ccc(C(=O)NCc4ccc(C)cc4)cc3n(CC(=O)Nc3ccc(F)cc3)c2=O)cc1 | inactive
CCN(C(=O)COC(=O)/C=C/c1ccco1)c1c(N)n(Cc2ccccc2)c(=O)[nH]c1=O | inactive
CCOc1ccc(N(CC(=O)Nc2ccc(OC)cc2)S(=O)(=O)c2c(C)[nH]c(=O)[nH]c2=O)cc1 | inactive
CC(C)=CCC[C@H](C)C[C@@H]1Cc2[nH][nH]c(=O)c2[C@H](c2ccc(Cl)cc2)O1 | inconclusive [inhibitor, partial curve]
CCCC(C(=O)NC(C)(C)C)N(Cc1ccccc1Cl)C(=O)c1snc(C(N)=O)c1N (stereo unspecified) | inconclusive [inhibitor, single point]
O=C(CSc1ccccc1)Nc1ccc2sccc2c1 | inconclusive [inhibitor, single point]
OC(c1ccccc1)(c1ccccc1)C1CCN(CCCOc2ccccc2)CC1 | inconclusive [inhibitor, single point]
CCOc1ccc(CCNC(=O)CS(=O)Cc2nc(-c3ccc(C)cc3)oc2C)cc1 (stereo unspecified) | inconclusive [inhibitor, single point]
CCCc1nc(C)c2c(=O)[nH]c(-c3cc(S(=O)(=O)N4CCN(CC)CC4)ccc3OCC)nn12 | inactive
COc1ccc(/C=C2\SC(=O)N(CCC(=O)NCCCn3ccnc3)C2=O)cc1 | inconclusive [inhibitor, partial curve, poor fit]
